Test results published in PubChem BioAssay (NCI).
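Exposure lasted 48 hours, with cells grown in 96-well plates and compounds tested at five concentrations. GI50 = concentration required for 50% inhibition of growth. TGI is the concentration that stops growth completely.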

Test system: NCI-H322M lung
Test: inhibition of tumour cell growth, NCI panel, 48 h

Compound	TGI [µM]	GI50 [µM]
Cc1ccc(NC(=O)C(=O)Cc2cc[n+]([O-])cc2)cc1	> 100	–
CC(CCCOC(c1ccccc1)(c1ccccc1)c1ccccc1)OC(=O)Nc1ccccc1 (centres undefined)	27.7	–
CC1=C(C(=O)OC(C)C)C(c2ccccc2C(F)(F)F)C(C(=O)OC(CO[N+](=O)[O-])CO[N+](=O)[O-])=C(C)N1 (centres undefined)	> 100	–
Cc1cc(OCc2nnc3n2N=C(c2ccc(Cl)cc2Cl)CS3)ccc1Cl	> 100	> 100
CN(C)Cc1cc(C(C)(C)C)cc(C2CCCCC2)c1O	28	–
CCOP(=O)(OCC)/C(C#N)=C/c1c[nH]c2ccccc12	> 100	–
NCCSCCc1ccccc1	> 100	–
CN(C)Cc1cc(N=Nc2ccc(Cl)cc2)ccc1OC(=O)c1ccccc1	32.7	–
CC1OC(OC2C(Oc3cc(O)c4c(c3)O[C@H](c3ccc(O)cc3)CC4=O)OC(CO)C(O)C2O)C(O)C(O)C1O (some centres undefined)	> 100	–
Cc1nc2c(=O)n3c4c(cccc4c2o1)CCC3	> 100	–
COc1ccc(OC)c(Nc2nc(-c3c(C)nc4sccn34)cs2)c1	> 100	> 100
CCOP(=O)(OCC)/C(C#N)=C/c1ccnc2ccccc12	> 100	–
CC(C)COC(=O)c1ccc2[nH]c(O)c(C=Nc3ccc(S(N)(=O)=O)cc3)c2c1	6.96	1.69
CN(C)CCN(C(=Nc1ccccc1)N1CCCC1)c1ccccc1	> 100	–
OC(C/C=N/Nc1ccccc1)(C(F)(F)Cl)C(F)(F)Cl	> 10	–
CCOC(=O)C1=C(Nc2ccc(Cl)c(Cl)c2)OC/C1=N\NS(=O)(=O)c1ccc(C)cc1	> 100	–
COc1cc(Cl)cc(-c2nn(-c3cccc(NC(=O)Nc4ccc(Cl)c(C(F)(F)F)c4)c3)cc2-c2ccncc2)c1	24.9	3.36
CC(C)C(NC(=O)C(Cc1ccccc1)NC(=O)[C@H]1CCC[C@H]1NC(=O)C(N)Cc1ccc(O)cc1)C(N)=O (some centres undefined)	> 100	–
O=c1oc2ccc([N+](=O)[O-])cc2c(Nc2ccc3c(c2)S(=O)(=O)c2ccccc2O3)c1[N+](=O)[O-]	> 100	–
C[C@H]1C(=O)CC[C@]2(C)CCC(C(C)(C)O)CC12O (some centres undefined)	> 100	–
CN(C)CCN1C(=O)c2cccc3cccc(c23)C1=O	> 25	> 25
CNCCC=C1c2ccccc2CCc2ccccc21	27.9	–
COc1cc2oc(=O)ccc2cc1CC=C(C)C	> 100	–
CC(=O)ON(C(C)=O)c1ccc(-c2nc3ccccc3s2)cc1C	> 100	–
COc1cc(C(=O)Oc2c(C#N)sc3c2c(=O)n(-c2ccccc2)c(=S)n3-c2ccccc2)cc(OC)c1OC	54.6	–
NC(=O)c1cccc([C@@H]2O[C@H](CO)[C@@H](O)[C@H]2O)c1	65	–

Compound	TGI [µM]	GI50 [µM]
COc1ccc(C(=O)Nc2ccc3oc(-c4ccccc4)nc3c2)cc1	> 100	–
CC1=NN=C(N)NC1=CC(Sc1ccc(Cl)cc1)c1c(O)ccc2ccccc12 (centres undefined)	65	–
C[C@]12CC[C@H](O)CC1=CC[C@@H]1C2CC[C@]2(C)Nc3c(cnn3-c3ccc(F)cc3)CC12 (some centres undefined)	> 86	–
COc1cc(C2C(Cl)C(=O)N2NC(=O)c2ccc(NC(C)=O)cc2OC)ccc1O (centres undefined)	16.7	–
N#CC1=C(Cl)NC(Cl)=C(C#N)C1c1c(Cl)cccc1Cl	> 100	–
CCc1n[nH]c(=O)n1CCO	> 100	–
Cc1ncc([N+](=O)[O-])n1CCNC(=O)Cn1c([N+](=O)[O-])cnc1C	> 100	–
C/C=C/[C@H](O[Si](C)(C)C(C)(C)C)[C@@H](O)/C=C/C(=O)OCC	81.2	–
Cc1cc(Cl)ccc1C1OC(=O)c2c1ccc1ccccc21 (centres undefined)	> 100	–
O=C(/C=C(\O)c1ccccc1)c1cc(-c2ccccc2)n(-c2ccccc2)n1	95.9	–
C=CCCCc1ccc(C(O)CCCCCCCCCCCC)o1 (centres undefined)	> 100	53.8
Cc1ccc(S(=O)(=O)c2c(N)n(CCN(C)C)c3nc4ccccc4nc23)cc1	> 100	–
CC(=O)OCC(Br)C1(C)CCC(C(C)(C)Br)O1 (centres undefined)	> 100	–
O=C(Nc1ccn(CCI)c(=O)n1)c1ccccc1	> 100	–
C=C1[C@@H]([C@@]2(C)C=CC(=O)C(C)(C)[C@@H]2CC(=O)OC)CC[C@@]2(C)C(c3ccoc3)OC(=O)[C@H]3O[C@]132 (some centres undefined)	> 100	–
CC1(C)[C@H]2Cc3cc(-c4cc5c(cn4)[C@@H]4C[C@H]([C@@H]5[C@@H]5c6cc(-c7cc8c(cn7)[C@@H]7C[C@H](C8)C7(C)C)ncc6[C@@H]6C[C@H]5C6(C)C)C4(C)C)ncc3[C@@H]1C2	> 100	–
C=CCn1c(-c2ccc(-c3cs/c(=N\N=O)n3CC=C)cc2)cs/c1=N\N=O	> 100	–
CCCC[C@H]1CCN2C[C@@H](O)[C@@H](O)[C@H]2[C@@H]1O	> 100	–
CC(=O)C1=CCC2c3[nH]c4ccccc4c3CCN2C1 (centres undefined)	> 100	–
CCC(=O)C(C(C)/C=C/CCSc1ccccc1)C(O)CCCCCC(=O)OC (centres undefined)	> 100	–
O=C(Nc1ccc(I)cc1F)c1cc(Cl)ccc1O	> 100	0.376
O=C1c2ccccc2C(=O)c2oc(Br)cc21	3.03	–
O=c1[nH]n(Cc2ccccc2Cl)c2ccccc12	> 100	–
CC(C)CCN[C@@H]1CCc2cc(O)c(N3CC(=O)NS3(=O)=O)c(F)c2C1	> 100	> 100
O=C1C=CC(O)C2C1CC13SSC4(CC5C(=O)C=CC(O)C5N4C1=O)C(=O)N23 (centres undefined)	5.27	–
CCN(CC)CCSCCCNc1c2ccc(Cl)cc2nc2ccc(OC)cc12	2.48	0.496

Compound	TGI [µM]	GI50 [µM]
CCC1CN2CCC3(c4ccccc4)CC(C(=O)OC)=CC1C23 (centres undefined)	30.4	–
Nc1n[nH]c(CCc2nc(N)n[nH]2)n1	> 100	–
O=C(NO)c1ccc(O)c(O)c1	> 100	–
O=C1NC(=O)C2C1N(Cc1ccccc1)C(=O)N2Cc1ccccc1 (centres undefined)	> 100	–
COc1cc2c(c(OC3OC(CO)C(O)C(O)C3O)c1)C(=O)CC(c1ccc(O)cc1)O2 (centres undefined)	> 100	–
CCN(CC)CCOc1ccc(C(=O)/C=C\c2ccc(Cl)cc2Cl)cc1	27.8	13.7
O=[N+]([O-])c1ccc(S(=O)(=O)Cc2ccccc2)c2nonc12	> 100	–
Cc1cccc(Nc2cnc(N)nc2N)c1	> 100	–
Oc1ccc(Cl)cc1CNc1nc2ccccc2[nH]1	41.2	15.8
COC(=O)C1=CC2OC1(C)CCC2=O (centres undefined)	> 100	–
CC1=C(/C=C/C(C)=C/C=C/C(C)=C/CO)C(C)(C)CCC1	51.5	–
O=C(/C=C1/Nc2ccc([N+](=O)[O-])cc2NC1O)c1cccc([N+](=O)[O-])c1 (centres undefined)	> 100	–
O=C1c2nc3n(c2C(=O)c2c1nc1n2CCC1)CCC3	14.6	–
CCOC(=O)c1c(N2CCCC2)[nH]c(=O)c(C(c2cccs2)c2c(O)c(C(=O)OCC)c(N3CCCC3)[nH]c2=O)c1O	> 100	–
COC(=O)c1ccc(NCc2cc(O)ccc2O)cc1	54.3	–
CCOC(=O)C(=O)C(CCC(=O)c1ccc2ccccc2c1O)C(=O)OCC (centres undefined)	> 100	–
O=C(O)C1=C(C(=O)Nc2ccc(NC(=O)C3=C(C(=O)O)C4C=CC3C4)cc2)C2C=CC1C2	> 100	–
CC(C)(C)C1CCC2c3c([nH]c4ccccc34)C3C(=O)N(c4ccc5c(c4)C(=O)c4ccccc4C5=O)C(=O)C3C2C1 (centres undefined)	> 100	–
CC(C)(C)OC(=O)N(CCCCNCc1ccc2ccccc2c1)CCCNCc1ccc2ccccc2c1	3.04	–
COc1ccc2c(c1)CCC(OS(=O)(=O)CC13CCC(CC1=O)C3(C)C)C2=O (centres undefined)	66.4	–
O=C1Oc2cc3c(c4cccc1c24)O[C@H](c1ccccc1)[C@@H](c1ccccc1)[C@@H]3c1ccc(Cl)cc1	> 100	–
S=C1N=C(Cl)/C(=C\c2ccccc2)N1	> 100	–
COc1ccccc1CNC(=O)[C@H](Cc1ccc(O)cn1)NC(C)=O	> 100	–
CC1=NN(C(=O)CC(=O)Nc2cccc(Cl)c2)C(=O)C1N=Nc1ccc(C(=O)O)cc1 (centres undefined)	> 100	–
CC(C)C(NCc1c(O)ccc2c(-c3ccccc3)cc(=O)oc12)C(=O)O (centres undefined)	> 100	–
CC(=O)O[C@@H](C1C[C@@H](C)[C@H]2[C@@](O)(O1)[C@H](O)[C@@]1(C)C3=CC[C@H]4C(C)(C)[C@@H](OC5OCC(O)C(O)C5O)CC[C@@]45C[C@@]35CC[C@]21C)C(C)(C)O (some centres undefined)	> 100	–

Compound	TGI [µM]	GI50 [µM]
CO[C@H]1CC(c2ccc[nH]2)=N[C@]12O[C@@H](C)C[C@@H]1CCCCCCCc3ccc([nH]3)[C@H]12	> 33.3	1.65
CC12Oc3ccc4ccccc4c3CC1Cc1c(ccc3ccccc13)O2 (centres undefined)	> 100	–
COc1ccc(NC2CC(C)N(C(=O)c3ccccc3)O2)cc1 (centres undefined)	> 10	–
O=C(O)c1ccccc1NC(=O)C1CCCCC1	> 100	–
Cn1c2ccccc2c(=O)c2[nH]c3ccccc3c21	> 100	–
Cc1ccccc1N=NC(C(=O)c1ccccc1)C(=O)c1ccccc1	> 100	–
N#Cc1cc(S(=O)(=O)Nc2nc3ccccc3s2)c(SCc2ccccc2)cc1Cl	45.6	20.6
ClCc1ccc(Cn2cnc3c(Cl)nc(Cl)nc32)cc1	25.2	12.7
O=C1OC(c2ccccc2)=N/C1=C\c1cccc(F)c1	> 100	–
Cn1cnc([N+](=O)[O-])c1Sc1ncn[nH]1	> 100	> 100
O=C(CSC1=NNC2(C(=O)N1)c1ccccc1-c1ccccc12)NC(=S)Nc1ccccc1	> 10	–
NCc1cc(O)c(O)c(O)c1	> 100	–
CC1(C)OC(=O)C=C([O-])O1.CC1(C)OC(=O)C=C([O-])O1.CC[O-].CC[O-].[Ti+4]	> 100	> 100
CC(Br)C(=O)Nc1ccc(C(=O)O)c(O)c1 (centres undefined)	74.1	–
COc1ccc(CCc2nccn2C)cc1OC	> 100	–
CN(/N=N/c1nc(OCc2ccccc2)c2[nH]cnc2n1)C(=O)Oc1ccc([N+](=O)[O-])cc1	20.8	9.36
Clc1nc(Cl)c2ncn(Cc3ccc(Cn4cnc5c(Cl)nc(Cl)nc54)cc3)c2n1	83.6	24.9
CCCCCCC(/C=N/O)C(C)(O)CCC (centres undefined)	> 100	–
N#CC(C#N)=Cn1c(=S)[nH]c2ccccc21	> 100	–
COc1ccc(Nc2c3ccccc3nc3[nH]c4ccccc4c23)cc1	> 50	> 50
COc1ccc(N=[N+]([O-])c2ccc(OC)cc2)cc1	> 100	–
CCCNc1nc2ccccc2c2c1S(=O)(=O)c1ccc(Cl)cc1C2=O	39.8	1.21
CN1C(=O)C2C=C3CCCCC3=CC2N(C)C1=O (centres undefined)	> 100	–
O=[N+]([O-])c1ccc(Cl)cc1C1SCc2nc3ccccc3n21 (centres undefined)	86.7	–
C/C(=N\NC(=S)NCc1ccccc1)c1nc2ncccc2[nH]1	61.2	–
CC(=O)c1cc(C)n2c1CS[C@@H]2c1ccccc1	> 100	–
